In the supplement of paper PMC10986608:
The other results are listed elsewhere or left out. Single values are uncertain, as repeats are few or missing.

System: Candida albicans DPL-15
Test: growth (OD600) after compound treatment (apparently relative to screen median) (relative growth (fraction; screen median 1.02)); DPL-15 is a caspofungin-resistant clinical isolate; higher = more fungal growth (less antifungal activity)
Conditions: 25 µM; RPMI 1640; 48 h; 30 °C

**Q.** How did the growth turn out when `CCO[C@@H]1CCN(C(=O)c2c(O)cc(O)cc2Nc2cn(C)nc2C)C1` was run?
**A.** The growth was 1.11.

**Q.** Which growth does the source give for `C=CCOC(=O)N[C@H](c1ccccc1)[C@H](C)/C=C/CC(=O)O` here?
**A.** The growth was 1.06.

**Q.** Which growth does the source give for `COC(=O)c1c(C(=O)OC)c2c3ccccc3cc(C3CC3)n2c1C(=O)OC` here?
**A.** The growth was 0.926.

**Q.** `C=C(C)CC1C(=O)CCC1=O` was tested. Which growth did it give?
**A.** The growth was 1.16.

**Q.** With `COC(=O)C1=C(C)N(Cc2ccccc2)C(NCCc2ccc(Br)cc2)=N[C@H]1c1cccc(C(F)(F)F)c1` as the compound, how does the growth read?
**A.** Its growth is active: 0.0554.

**Q.** Which growth does the source give for `Cc1ccc(S(=O)(=O)N2CCC3(CC2)CNC(=O)c2cccc(c2)-c2cc(n[nH]2)CC(C)(C)CNC(=O)C3)cc1` here?
**A.** Its growth is 0.974.

**Q.** For `CC[C@@H](O)COc1cc2c(cc1C1(c3cc4c(cc3OC[C@H](O)CC)OCO4)C(=O)Nc3cc(F)ccc31)OCO2`, which growth is on record?
**A.** Its growth is 1.08.

**Q.** `CCCCCOS(=O)(=O)NC(C)(C)c1ccccn1` was tested. Which growth did it give?
**A.** Its growth is 1.1.

**Q.** `CC(=O)C1=C2C=CCCN2C(=O)NC1c1ccccc1` (stereo not given) was tested. Which growth did it give?
**A.** The growth was 1.01.

**Q.** `COC(=O)c1[nH]c2ccc(OC)cc2c1[C@]12CCN(C(=O)c3ccc(C(F)(F)F)cc3)[C@H]1Nc1ccccc12` was tested. Which growth did it give?
**A.** The growth was 1.02.

**Q.** With `CC(=O)C1=C(C)N(CC#C[Si](C)(C)C)C(=O)NC1c1ccccc1` (stereo not given) as the compound, how does the growth read?
**A.** The growth was 1.17.

**Q.** Which growth does the source give for `CO[C@@H]1[C@H](O)CC[C@]2(O)CN(Cc3ccco3)[C@@H](CC=C(C)C)[C@](C)(O)[C@@H]12` here?
**A.** Its growth is 1.

**Q.** How did the growth turn out when `COc1cc(OC)c2oc(/C=C(\O)CC(C)=O)cc2c1C(=O)O` was run?
**A.** The growth was 1.03.

**Q.** For `O=C(NCc1ccco1)N1CCc2nc(-c3ccccc3)c(-c3ccccc3)cc2C1`, which growth is on record?
**A.** Its growth is 1.02.

**Q.** For `CC1=NCCNC2=C1C(c1ccc(F)cc1)N(Cc1ccccc1)C2=O` (stereo not given), which growth is on record?
**A.** Its growth is 0.913.

**Q.** For `CC(C)CC1=NCCNC2=C1C(c1cccc(C(F)(F)F)c1)N(Cc1ccccc1)C2=O` (stereo not given), which growth is on record?
**A.** Its growth is 1.12.

**Q.** How did the growth turn out when `CO[C@@H]1[C@H](O)CC[C@]2(O)CN3[C@H](Cc4ccccc4)C(=O)O[C@H](CC=C(C)C)[C@]3(C)[C@@H]12` was run?
**A.** Its growth is 0.986.

**Q.** For `C=CC12C=C(C)C3c4c(cc(O[Si](C(C)C)(C(C)C)C(C)C)cc4N1C(=O)OC2)C(O[Si](C)(C)C(C)(C)C)[C@@H]3C` (stereo not given in full), which growth is on record?
**A.** The growth was 0.989.

**Q.** With `COC(=O)c1cc2c(c3c4ccccc4n(S(=O)(=O)c4cccc(C)c4)c13)C(=O)N(Cc1cccc(F)c1)C2` as the compound, how does the growth read?
**A.** Its growth is 0.938.

**Q.** With `CC1=NCCNC2=C1C(c1ccc3c(c1)OCO3)NC2=O` (stereo not given) as the compound, how does the growth read?
**A.** Its growth is 1.09.

**Q.** How did the growth turn out when `Cc1ccc(C2NC(=O)c3nn(Cc4ccccc4)c(CC(C)C)c32)cc1` (stereo not given) was run?
**A.** The growth was 0.937.

**Q.** `C=CC[C@]12C[C@@]3(O[C@H](C(C)C)N=C3C[C@H](c3ccc(OC)cc3)[C@H]1C)N(Cc1cccnc1)C2=O` was tested. Which growth did it give?
**A.** Its growth is 0.98.

**Q.** With `COC(=O)c1cc2c(c3c4cc(OC)ccc4n(S(=O)(=O)c4cccc(C)c4)c13)C(=O)N(Cc1cccc(F)c1)C2` as the compound, how does the growth read?
**A.** Its growth is 1.09.

**Q.** `COc1ccc(N2C(=O)c3[nH]nc(CC(C)C)c3C2c2cccc(C(F)(F)F)c2)cc1` (stereo not given) was tested. Which growth did it give?
**A.** The growth was 0.924.

**Q.** Which growth does the source give for `CC(=O)C1=C2C=CCCN2C(=O)NC1c1cc(F)ccc1C(F)(F)F` (stereo not given) here?
**A.** The growth was 0.95.

**Q.** For `CCCCC/C=C/NC(=O)c1ccccc1`, which growth is on record?
**A.** The growth was 0.891.

**Q.** How did the growth turn out when `COC(=O)C/C=C/[C@H](C)[C@H](/C=C/c1ccccc1)NC(=O)[C@@H](Cc1ccccc1)NC(=O)OC(C)(C)C` was run?
**A.** The growth was 0.941.

**Q.** How did the growth turn out when `COc1cc(F)cc2c1[C@]1(O)[C@H](O)[C@H](C#N)[C@@H](c3ccccc3)[C@]1(c1ccc(Br)cc1)O2` was run?
**A.** The growth was 1.02.

**Q.** How did the growth turn out when `CN(C)CCn1cc(Nc2cc(O)cc(O)c2C(=O)N2CC3CC3C2)cn1` (stereo not given) was run?
**A.** Its growth is 1.13.

**Q.** How did the growth turn out when `CC(=O)OC[C@H]1O[C@H](C#Cc2ccc(C(F)(F)F)cc2)C=C[C@H]1OC(C)=O` was run?
**A.** The growth was 0.887.

**Q.** `CC1=C(O)C=CC(=O)C12Oc1cc(C)cc(O)c1C2=O` (stereo not given) was tested. Which growth did it give?
**A.** The growth was 1.31.

**Q.** With `CC(=O)C1=C2C=CCCN2C(=O)NC1c1ccccc1Br` (stereo not given) as the compound, how does the growth read?
**A.** The growth was 0.932.

**Q.** `COc1ccc([C@@]23Oc4cc(OC)cc(OC)c4[C@]2(O)[C@H](O)[C@H](C(=O)c2cc4cccc(OC)c4o2)[C@H]3c2ccccc2)cc1` was tested. Which growth did it give?
**A.** Its growth is 1.12.

**Q.** `COc1cc(CO[C@H]2C=C[C@@H](c3ccccc3)O[C@@H]2CO)cc(OC)c1` was tested. Which growth did it give?
**A.** The growth was 1.1.

**Q.** How did the growth turn out when `BrC1=C[C@H](c2ccccc2)[C@@H](c2ccccc2)[C@@]12CCCO2` was run?
**A.** The growth was 1.09.

**Q.** With `CCOC1=NCC(=O)N(C)[C@H]1C` as the compound, how does the growth read?
**A.** The growth was 0.984.

**Q.** `CC(=O)c1c(C)oc(=O)c2c1OC1=C(C(=O)CCC1)[C@@]21C(=O)N(C)c2ccccc21` was tested. Which growth did it give?
**A.** Its growth is 0.954.

**Q.** With `CCCCNCC[C@@]12[C@H](NC(C)=O)[C@@H](C)[C@H](OCc3ccccc3)[C@@]13C=CC=C[C@H]32` as the compound, how does the growth read?
**A.** The growth was 1.42.

**Q.** With `CC1(C)OB(c2ccc(NS(=O)(=O)N3CCOCC3)cc2)OC1(C)C` as the compound, how does the growth read?
**A.** The growth was 1.09.

**Q.** With `C[C@H]1CC[C@H]2C(=O)N(Cc3ccc(Cl)cc3)C[C@@H](O)CN2[C@@H]1c1ccc(Br)cc1` as the compound, how does the growth read?
**A.** Its growth is 1.08.

**Q.** How did the growth turn out when `COc1ccc([C@@]23Oc4cc(OC)cc(OC)c4[C@]2(O)[C@H](O)[C@H](CO)[C@H]3c2ccccc2)cc1` was run?
**A.** Its growth is 0.968.

**Q.** `C[C@@H]1/C=C/CC(=O)OCCCCC(=O)N2CCC[C@H]2C(=O)N[C@@H]1c1ccc(Br)cc1` was tested. Which growth did it give?
**A.** Its growth is 0.977.

**Q.** `CC(=O)OC[C@H]1O[C@H](c2ccc(-c3ccccc3)cc2)C=C[C@H]1OC(C)=O` was tested. Which growth did it give?
**A.** Its growth is 0.924.

**Q.** How did the growth turn out when `COc1ccc2c(c1)C1(Cc3occc(=O)c3OS(C)(=O)=O)CCCCC1=N2` (stereo not given) was run?
**A.** Its growth is 1.12.

**Q.** For `COC(=O)C/C=C/[C@H](C)[C@@H](NC(=O)[C@H](Cc1ccccc1)NC(=O)OC(C)(C)C)c1ccccc1`, which growth is on record?
**A.** The growth was 1.08.

**Q.** `COC(=O)C1=C(C)N(Cc2ccccc2F)C(=S)NC1c1cccc(Cl)c1` (stereo not given) was tested. Which growth did it give?
**A.** Its growth is 0.82.

**Q.** With `CC(C)[C@H]1CC[C@H](C)C[C@@H]1OS(=O)(=O)NC(C)(C)C` as the compound, how does the growth read?
**A.** Its growth is 1.18.

**Q.** `COC(=O)C1=C(C)N(Cc2ccccc2)C(NCCc2c[nH]c3ccccc23)=N[C@H]1c1ccc(Br)cc1` was tested. Which growth did it give?
**A.** Its growth is 0.903.

**Q.** Which growth does the source give for `C=CCCc1n[nH]c2c1C(c1ccc(F)cc1)N(c1ccc(OC)cc1)C2=O` (stereo not given) here?
**A.** The growth was 1.23.

**Q.** How did the growth turn out when `CC(=O)C1=C(C)N(Cc2ccccc2)C(=S)NC1c1ccccc1Br` (stereo not given) was run?
**A.** The growth was 1.1.
